{
  "source": "paper PMC12136788",
  "binders": {"B1": {"name": "chr2:61711136:61711137:-_ENSG00000082898_ENST00000401558|hu_hu|FALSE|FALSE (ssRNA)", "RNA": "GGGAGUUCUACAGUCCGACGAUCGACAUUCCUCAUAGUAUGUUUGAAAGCCCAAAUGAUGGAAUCCAAAACAAGUUUAAACUGUGUAGGUGGAAUAGCAAGGAAUGCUGGGAAACAAUGAGAAUUGACAGCCUGAAGUAGUAACAACAGAGGAUUGAGCAUCA"}, "B2": {"name": "chr12:39756943:39756944:-_ENSG00000139116_ENST00000544797|hu_mus|hu_hu_hu_mus_False|38_108 (ssRNA)", "RNA": "GGGAGUUCUACAGUCCGACGAUCGGUUUGGCUAUUACCCCCAAGGGAAUCCUGCAAGAGUCUUGUCAGCUUAGAGUCUCUGUAAGGGACAUGGGUGGCCCUCUUGCUCUUGUCCCCCAAGGCGCUGAUUACAUUCCCAAGAGCCAACAGAGGAUUGAGCAUCA"}, "B3": {"name": "chr14:89307221:89307222:+_ENSG00000165533_ENST00000346301|hu_mus|hu_hu_hu_mus_False|18_108 (ssRNA)", "RNA": "GGGAGUUCUACAGUCCGACGAUCUCCUGUCUGAUUAGUGCCAGGGAGCUUCAAAGAUGUGCCAGGGCGUGGGACCUGAGCAAUAGCAUUUUCAUCCAGGAUCAUUUCAGCAAUUCCUUCCUGAUCUACAUCAAUUUCAUCUAUCAACAGAGGAUUGAGCAUCA"}, "B4": {"name": "chr11:29608675:29608676:+_ENSMUSG00000020458_ENSMUST00000102843|mus_mus|FALSE|FALSE (ssRNA)", "RNA": "GGGAGUUCUACAGUCCGACGAUCCUCUGUAUCAGAAGGAAGUUUUUCCUCUGCUUCUUUCGUAAGUACUUUGGGUUUAACUAUGUUGCCCAUUUCUAUUUGAGAUUCCAAAGCAGAAACAUUUGGAAGCAAUAAGGGCACCUUCAACAGAGGAUUGAGCAUCA"}, "B5": {"name": "chr3:65185704:65185705:-_ENSMUSG00000027828_ENSMUST00000029414|mus_hu|FALSE|FALSE (ssRNA)", "RNA": "GGGAGUUCUACAGUCCGACGAUCAUUUUUUUCCUUUUAAUAAACGUCCUAGUACUCUGAGUUUCCCUUUCAAUUCAUUUAAUUUCAACAAUCUGUCAAAAAACAGCCAAUAAACAAAUACUGAAUUACAUUCUGCUGGGUUUUCAACAGAGGAUUGAGCAUCA"}, "B6": {"name": "chr2:148701126:148701127:-_ENSMUSG00000027447_ENSMUST00000028938|mus_mus|motif|central (ssRNA)", "RNA": "GGGAGUUCUACAGUCCGACGAUCCUAGGACAAAGGGAUAAAGCUCCAACAAGACUCUGAGUUGGUGCAGAACAGACGCUGCGGCUCCGUGCGACUUUUACCCAAAUGCGAGCGUUAGGGACCCGCCCGCCUCUCCUGGCUCCUCAACAGAGGAUUGAGCAUCA"}, "B7": {"name": "chr7:141445308:141445309:+_ENSG00000106028_ENST00000265304|hu_hu|hu_hu_hu_mus_False|38_38 (ssRNA)", "RNA": "GGGAGUUCUACAGUCCGACGAUCUAUGAUUGUUGUUGCUUGCCGCCUCACAUUGUUUUUAUCCAUGUACUCGCCAUAGUCCACUUUCCCUUCCACAUAAAUUCGAGCCCCCUUUUUCACAUACUGAUAUGCCACAUCUCUGAGCAACAGAGGAUUGAGCAUCA"}, "B8": {"name": "chr2:202488911:202488912:-_ENSG00000155755_ENST00000286196|hu_mus|hu_hu_hu_mus_False|88_98 (ssRNA)", "RNA": "GGGAGUUCUACAGUCCGACGAUCAUUGAAACAUUUUCAUAAUAUUGAGAGAUGUUUUCAGCAUUAUGUAACAAAAGCUCAAUUGUAAAUACAUGUAUCUUAUAAAAAUACACUUAAAAACACGAGUGGGGAGCGCAGGCGCCACAACAGAGGAUUGAGCAUCA"}, "B9": {"name": "chr1:39494564:39494565:+_ENSG00000168653_ENST00000372967|hu_hu|hu_hu_hu_mus_True|28_38 (ssRNA)", "RNA": "GGGAGUUCUACAGUCCGACGAUCAUGCAUUCGCCUCAUCGUUUUGUACCGAAGCAAGCACUCUUCGAAGUCAUCGAACUCUAUCUUGCACUCCUUUUCUGCCCGAGUAUAACCGAUCCCGUGUGCACACUCUAUCCACUCUUUCAACAGAGGAUUGAGCAUCA"}, "B10": {"name": "chr13:13598695:13598696:+_ENSMUSG00000005397_ENSMUST00000005532|mus_mus|motif|central (ssRNA)", "RNA": "GGGAGUUCUACAGUCCGACGAUCCACCAAACCCGUGUCAAACAGCACUCGGCGCUGGGUGCCAUCCAUCUUUGCAACUUCGGUUCGAUCCAACUGAGAGUCCGUCCAGAAGAUGGUUCGACCAAGAUGGUCAAGGGCAAUGCCCAACAGAGGAUUGAGCAUCA"}, "B11": {"name": "37438653_37438773_3022_3pUTR_ENSMUSG00000026915_ENSMUST00000028279|mouse|control|control (ssRNA)", "RNA": "GGGAGUUCUACAGUCCGACGAUCGAAGGCCACAAGAACAAAAGAGGGUGAUUGAUUAAUUUAUUUUUUUAACUUGGAAAUUCGUAAACUAAAAUAAUCACAAUCCUCCUUCCCCAUCUUUGGAUGGUGCCAUCAUUUUAAUAACAACAGAGGAUUGAGCAUCA"}, "B12": {"name": "chr15:79189513:79189514:+_ENSG00000185787_ENST00000426013|hu_mus|FALSE|FALSE (ssRNA)", "RNA": "GGGAGUUCUACAGUCCGACGAUCCUCCUUUUAUUUUCUCUGUUUAAAAUCAAAGAGGAAACAAACAACUCUGUUAUACACUAACGGUCUUCAAAGUACAUCAUUUGUACAAGAGAAGGACUAAGAACCAAACUGUUUACAGAGCAACAGAGGAUUGAGCAUCA"}, "B13": {"name": "chr6:38652254:38652255:-_ENSG00000124767_ENST00000373365|hu_hu|hu_hu_hu_mus_False|58_58 (ssRNA)", "RNA": "GGGAGUUCUACAGUCCGACGAUCCGAGAACUUCAUAGCAGGGAAGUCAAGCUUCUGCAGGAGGGUCAGUCCAAGAACUCUAGUAUAAAAAUCCAGGGACUUCUUAGGAUCCUUAAUUCUUAGCAUCGUUUGCUGCAGUAGAAACAACAGAGGAUUGAGCAUCA"}, "B14": {"name": "chr7:87731985:87731986:-_ENSMUSG00000030527_ENSMUST00000122255|mus_mus|FALSE|FALSE (ssRNA)", "RNA": "GGGAGUUCUACAGUCCGACGAUCUGAAGAGAGGUCUGGGGAAGCCGGUAGCCACUUCAAUGCUGCCGCCUAAGACAGGCUAGUCACAAAGGCAGCAUCGAGUGCAGGCUCACACGACUGCAGCAGGGCAACGCAGUCUCCUGCCAACAGAGGAUUGAGCAUCA"}, "B15": {"name": "chr11:107358869:107358870:+_ENSMUSG00000020720_ENSMUST00000021063|mus_mus|motif|central (ssRNA)", "RNA": "GGGAGUUCUACAGUCCGACGAUCUCUCUGGAAGUUGAUGACUCCAGCCAACCUGUCUACUUUAGCAAAGAUGGUCUUGUUAACGACGGGAUUCGAGAGGAAAGCCUCUGACUCAUCCACAGAGAGAUCCAGAAGUUGUGCCAUCAACAGAGGAUUGAGCAUCA"}, "B16": {"name": "chr6:38654746:38654747:-_ENSG00000124767_ENST00000373365|hu_mus|FALSE|FALSE (ssRNA)", "RNA": "GGGAGUUCUACAGUCCGACGAUCAAAAUCCAGGGACUUCUUAGGAUCCUUAAUUCUUAGCAUCGUUUGCUGCAGUAGAAAAUCCUUGGUGCUAGGGUCUGGAUCGGAGCAGCAGCUGAAAGCGGUCUCAUCAGUGAGGCCACUCAACAGAGGAUUGAGCAUCA"}, "B17": {"name": "chr2:201681052:201681053:+_ENSG00000082153_ENST00000409600|hu_mus|FALSE|FALSE (ssRNA)", "RNA": "GGGAGUUCUACAGUCCGACGAUCUUUAACUUCAUCUUCAAAACCUUUCUCCAGGUAUUUGUAGCGCCUGAUUAGCUUGUUAAAAACCUGAGCGAAUGCUUGCAUGGUCUCUAGGUCUUCUUGUGCUGCGAACACACAGACAUCCAACAGAGGAUUGAGCAUCA"}, "B18": {"name": "chr2:216981417:216981418:+_ENSG00000079246_ENST00000392132|hu_hu|hu_hu_hu_mus_True|18_48 (ssRNA)", "RNA": "GGGAGUUCUACAGUCCGACGAUCCUGAUACUGGUCCUUGCCAGCAAGGGCAUUAUCAGUGCCAUCUGUGCCAUAGAGGACUAACGCAAUCUCAUCCUUGCUCUCCGAAAAUACCUGUCGCUGUACAAACAUAGUCAUCACUUUCAACAGAGGAUUGAGCAUCA"}, "B19": {"name": "chr13:21488354:21488355:-_ENSMUSG00000021327_ENSMUST00000070785|mus_mus|FALSE|FALSE (ssRNA)", "RNA": "GGGAGUUCUACAGUCCGACGAUCUUGUUCCACCUUUAUGACCAGUAGCUCCAUCUGGUCCUCUGCAGAGUGUGAGUCCAAGGUUGUGCUUUCCCUUGAUUCUCUAGCCAUCCCGAACCAAGCAGUUCUCCCGUUUCACUGUAGCAACAGAGGAUUGAGCAUCA"}, "B20": {"name": "chr15:59323432:59323433:+_ENSG00000157450_ENST00000557998|hu_mus|FALSE|FALSE (ssRNA)", "RNA": "GGGAGUUCUACAGUCCGACGAUCCACUGUAUCAGAGCCCCCAAAAUGGAGACUAGAUGAGGGAGAAGACAGACACUCACUUAAGGAAGAGUCAUUAUCCUCAUCACUCGGUGUCUCUAGCUGUUGUCUGCGCCCUAGGAUUUCCAACAGAGGAUUGAGCAUCA"}, "B21": {"name": "chr13:41369856:41369857:+_ENSMUSG00000091264_ENSMUST00000165561|mus_mus|motif|central (ssRNA)", "RNA": "GGGAGUUCUACAGUCCGACGAUCUUGGCCUUGAAGCUCAUUUCCCGUAUGGAGCAGACAACACUAGAAGGUUCAUCAGUCGGUCACUUCUCUAGUUAACAGUCCAAAGUUCGGGUAGAACAAACAUGGACUCCUGGCAAGAGGCAACAGAGGAUUGAGCAUCA"}, "B22": {"name": "chr1:163116782:163116783:-_ENSG00000143248_ENST00000313961|hu_mus|motif|central (ssRNA)", "RNA": "GGGAGUUCUACAGUCCGACGAUCCCAUGAAAGGGGACACUUGCAUCUGUUUUUCUUUUCAGCCUGGUUAAAAUAGCAGUCGGUCACCUAUUCUUUGCACAGACAGCUUUAUGUUAAACUGGAUAUUUUUGUGACUUAGACUGACAACAGAGGAUUGAGCAUCA"}},
  "note": "Some of the results follow.",
  "data": [
    {"target": "T1, UNK ZnF1-3 (human, UniProt Q9C0B0 31-174)", "T1 sequence": "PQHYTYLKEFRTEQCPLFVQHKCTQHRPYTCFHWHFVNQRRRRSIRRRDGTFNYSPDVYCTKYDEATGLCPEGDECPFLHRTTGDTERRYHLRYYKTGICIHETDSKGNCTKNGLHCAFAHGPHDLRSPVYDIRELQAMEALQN", "test": "nsRBNS (natural sequence RNA bind-n-seq); RBNS binding buffer (assumed for nsRBNS): 25 mM Tris pH 7.5, 150 mM KCl, 3 mM MgCl2, 0.01% Triton X-100, 500 ug/ml BSA, 20 U/ml SUPERase-In, 4 C; UNK is unkempt and MSI1 is Musashi-1; names of the RNAs are library labels; protein concentration not given here; high values mean tight binding", "units": {"binding signal": "enrichment R"}, "values": [
      {"binder": "B1", "binding signal": 1.25},
      {"binder": "B2", "binding signal": 0.723},
      {"binder": "B3", "binding signal": 0.819},
      {"binder": "B4", "binding signal": 0.74},
      {"binder": "B5", "binding signal": 1.07},
      {"binder": "B6", "binding signal": 1.11},
      {"binder": "B7", "binding signal": 0.596},
      {"binder": "B8", "binding signal": 0.63},
      {"binder": "B9", "binding signal": 0.788},
      {"binder": "B10", "binding signal": 0.925},
      {"binder": "B11", "binding signal": 2.12},
      {"binder": "B12", "binding signal": 1.19},
      {"binder": "B13", "binding signal": 1.16},
      {"binder": "B14", "binding signal": 0.745},
      {"binder": "B15", "binding signal": 1.02},
      {"binder": "B16", "binding signal": 0.704},
      {"binder": "B17", "binding signal": 0.484},
      {"binder": "B18", "binding signal": 0.836},
      {"binder": "B19", "binding signal": 0.707},
      {"binder": "B20", "binding signal": 0.988},
      {"binder": "B21", "binding signal": 1.06},
      {"binder": "B22", "binding signal": 1.01}
    ]}
  ]
}
